Key:
[1] = system: 5′ETS G4; experiment: Circular dichroism spectra, 5′ETS G4; format: binding; conditions: 100 µM GA, 10 µM 5′ETS G4, 25 °C
Protocol: (§1) G4-oligonucleotides listed in Supplementary Table S3 were purchased from Integrated DNA Technologies (Clareville, IA, USA). All of them were dissolved in G4s buffer (10 mM potassium phosphate, 100 mM potassium chloride at pH 7.0), heated at 95 °C for 10 min, slowly cooled to RT, and stored at 4 °C.
(§2) CD spectra were recorded at 25 °C on a JASCO 715 CD spectropolarimeter in G4s buffer conditions (10 mM potassium phosphate buffer containing 100 mM potassium chloride at pH 7.0). The concentration of the prefolded G4 DNA was 10 μM, and GA was added at 100 μM and incubated overnight to register the new spectrum. The used wavelength range was 230–700 nm with 100 nm/min as scan speed. The cuvette path length was 0.1 cm, and three accumulation spectra were averaged for each measurement. The G4-oligonucleotides used in the current study are listed in Supplementary Table S3.

[2] = system: CMYC G4; experiment: Circular dichroism spectra, CMYC G4; format: binding; conditions: 100 µM GA, 10 µM CMYC G4, 25 °C
Protocol: as §1, §2

O=C(O)c1cc(O)c(O)c(O)c1 [Gallic acid, 3,4,5-trihydroxybenzoic acid]
change of CD spectrum [1]: intensity of the positive CD band of both 5′ETS and CMYC G4s decreased | change of CD spectrum [2]: intensity of the positive CD band of both 5′ETS and CMYC G4s decreased
